Source: PMC4336329 (PLoS ONE, 2015)
Screen size: about 310,000 compounds; about 14,000 (4.5%) showed an effect of 50% or more. Effects have a minus sign here. The list shows a part of the results.

biological target: human ether-à-go-go-related gene (hERG) potassium channel (human, UniProt Q12809); assay: primary screen, population patch clamp on CHO cells stably expressing hERG
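Note: peak tail current of the secondary pulse compared with the same well before compound.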

human ether-à-go-go-related gene (hERG) potassium channel, sequence (Q12809 whole entry, looked up): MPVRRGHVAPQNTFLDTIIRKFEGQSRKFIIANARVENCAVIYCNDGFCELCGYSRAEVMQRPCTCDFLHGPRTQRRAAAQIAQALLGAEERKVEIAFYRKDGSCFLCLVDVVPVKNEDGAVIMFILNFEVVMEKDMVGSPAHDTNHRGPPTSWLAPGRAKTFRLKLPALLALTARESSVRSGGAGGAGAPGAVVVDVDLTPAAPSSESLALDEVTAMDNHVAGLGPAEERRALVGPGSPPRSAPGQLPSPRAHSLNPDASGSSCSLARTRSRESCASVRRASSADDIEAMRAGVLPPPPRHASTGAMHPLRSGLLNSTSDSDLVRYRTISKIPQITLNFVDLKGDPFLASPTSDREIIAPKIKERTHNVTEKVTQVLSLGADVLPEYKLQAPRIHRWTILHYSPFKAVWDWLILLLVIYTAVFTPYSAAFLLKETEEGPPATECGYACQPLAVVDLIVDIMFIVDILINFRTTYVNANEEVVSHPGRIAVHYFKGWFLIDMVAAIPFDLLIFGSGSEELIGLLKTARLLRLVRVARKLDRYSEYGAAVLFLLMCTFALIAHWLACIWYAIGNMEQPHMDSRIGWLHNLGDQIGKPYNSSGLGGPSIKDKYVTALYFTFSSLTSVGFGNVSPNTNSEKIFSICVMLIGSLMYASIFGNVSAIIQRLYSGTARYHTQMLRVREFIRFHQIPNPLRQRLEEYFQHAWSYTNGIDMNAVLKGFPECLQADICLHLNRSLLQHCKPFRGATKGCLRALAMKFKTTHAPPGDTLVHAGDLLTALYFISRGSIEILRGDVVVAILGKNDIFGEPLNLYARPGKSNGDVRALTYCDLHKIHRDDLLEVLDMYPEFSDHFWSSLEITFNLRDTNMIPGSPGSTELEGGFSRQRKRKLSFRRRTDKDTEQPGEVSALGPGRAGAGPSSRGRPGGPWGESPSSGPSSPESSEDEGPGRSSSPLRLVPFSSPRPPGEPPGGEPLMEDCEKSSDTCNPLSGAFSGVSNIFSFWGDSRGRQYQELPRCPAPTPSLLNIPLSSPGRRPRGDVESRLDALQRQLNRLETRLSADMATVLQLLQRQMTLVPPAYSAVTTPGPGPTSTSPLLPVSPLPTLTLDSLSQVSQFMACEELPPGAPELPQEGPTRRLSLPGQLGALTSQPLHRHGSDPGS

Structure (SMILES)	hERG current change (%, negative = inhibition) at 10uM [%]
COc1ccccc1-c1nnc(N)s1	12
CNC(=S)NNC(=O)c1cccn(Cc2ccc(Cl)c(Cl)c2)c1=O	-18.6
CCOC(=O)C1CCCN(C(=O)c2cccc(N3C(=O)c4ccccc4C3=O)c2)C1 (centres unmarked)	-18.4
CN(C)CCN=Cc1c(O)n(-c2cccc3ccccc23)c(=O)[nH]c1=O	10.4
CC(C)C(C(=O)NCC1CCCO1)N(Cc1ccccc1)C(=O)CNS(=O)(=O)c1ccccc1 (centres unmarked)	18.4
COc1cc(CNc2ccc3[nH]c(=O)[nH]c3c2)ccc1OCc1ccccc1	9.59
Oc1ccc(-c2nnc(Nc3ccccc3)c3ccccc23)cc1	-58.9
COc1ccc2nc(Nc3nc4ccc(NC(C)=O)cc4s3)sc2c1	12.3
Cc1ccc(C(=O)O/N=C(\N)c2ccccn2)cc1C	-1.05
CCOc1cc(NC(=S)Nc2ccccc2)c(OCC)cc1NC(=O)c1ccccc1	-0.843
O=S(=O)(NCc1csc(-c2ccccc2)n1)c1ccc(Cl)s1	5.47
Cc1ccc(-n2cc(CN3CCNC(=O)CC3)c(-c3cccc(C)c3)n2)cc1	-0.817
CC(=O)Cc1ccc(OC(C)C)cc1	2.76
COc1ccc(C2C(C(C)=O)=C(O)C(=O)N2c2nccs2)cc1 (centres unmarked)	-2.27
CCCCCCCCCn1cc(C(C)=O)c(=O)[nH]c1=O	4.68
Cc1ccc(C(C)C)c(OCC(=O)Nc2ccccc2N2CCN(C)CC2)c1	-40.5
COc1ccccc1CNC(=O)C(C)Oc1ccccc1 (centres unmarked)	-29.1
CC1(C)Cc2c(C#N)c(N3CCN(C(=O)c4ccco4)CC3)nc(-c3ccco3)c2CS1	-21.6
COCCNC(=O)CCCn1c(=O)c2ccccc2n(Cc2ccccc2C#N)c1=O	8.92
CC(Oc1ccccc1)C(=O)N1CCc2ccccc2C1 (centres unmarked)	6.25
O=C(Nc1ccc(F)cc1F)c1sccc1SCc1cccc(C(F)(F)F)c1	-4.52
CCN(CC(=O)Nc1c(F)cccc1F)C(=O)c1cccnc1SC	6.33

Structure (SMILES)	hERG current change (%, negative = inhibition) at 10uM [%]
O=S(=O)(NCc1ccccc1F)NCc1ccccc1F	12.4
Cc1cc(=O)[nH]c(N/N=C/c2ccccc2C(F)(F)F)n1	22.8
CCOc1ccc(N2C(=O)CC(N3CCN(c4ccc([N+](=O)[O-])cc4)CC3)C2=O)cc1 (centres unmarked)	-28.3
Cc1ccccc1C(=O)Nn1cnc2ccccc2c1=O	28.6
Cc1onc(-c2ccccc2)c1C(=O)NCC1CCCO1 (centres unmarked)	17.5
Cc1c(NC(=O)CSC2=C(C#N)C(c3ccccc3F)CC(=O)N2)c(=O)n(-c2ccccc2)n1C (centres unmarked)	8.04
CC(C(=O)NC(=O)NC1CCCCC1)N(C)CC(=O)Nc1ccc(F)c(F)c1F (centres unmarked)	-6.11
COc1ccccc1C(=O)N1CCN(Cc2cn[nH]c2-c2ccc(F)cc2F)CC1	-6.87
CC12CCC(C(=O)NCc3ccc(Cl)cc3)(OC1=O)C2(C)C (centres unmarked)	-4.36
CN(Cc1ccccc1)C1(CNC(=O)CCC(F)(F)F)Cc2ccccc2C1	4.95
NC(=O)CSc1nnc(COc2ccccc2)n1N	6.84
CNC(=S)Nc1cc(OC)ccc1OC	2.43
O=C(NCCCN1CCCC1=O)C1CCN(S(=O)(=O)c2ccccc2)CC1	9.71
CCCCn1c(N)c(N(Cc2ccccc2OC)C(=O)COc2ccc(F)cc2Cl)c(=O)[nH]c1=O	16.1
CCOCCCN(C(=O)CCC(=O)Nc1cc(C)on1)C(C(=O)NC(C)(C)C)c1ccccc1Cl (centres unmarked)	11.2
COc1ccccc1CNC(=O)C(CCSC)NS(=O)(=O)c1ccc2c(c1)oc(=O)n2C (centres unmarked)	17
Cc1c(C(=O)O)oc2c1/C(=N\O)CCC2	29
Cc1cc(NC(=O)c2ccc(C#N)cc2)on1	3.29
CCN(CCn1cccn1)C(=O)CCc1nnc(C2(c3ccc(Cl)cc3)CCC2)o1	-2.95
CSCCC(NC(=O)/C(=C/c1ccco1)NC(=O)c1ccco1)C(=O)O (centres unmarked)	8.29
O=C(N1CCOCC1)N1CCN(S(=O)(=O)c2ccccc2)C1	-12.8
Cc1ccc(S(=O)(=O)N2CCC(C(=O)N/N=C/c3cccnc3)CC2)cc1	-46.9
